NF-kB reporter data for twelve molecules are collected here from the supplement of paper PMC9174493.

Structures are written as SMILES. This is one part of the list. Single values of this set are uncertain. Values with irradiation are relative to irradiated vehicle.
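Also: viability correction based on the alamar blue assay, with concentrations leaving 10% survival or less dropped.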

This experiment has as its system A549-Dual. Put plainly: NF-kB reporter (SEAP) activity, viability-corrected, relative to vehicle (fold change vs vehicle); higher = more activation of STING-IRF / NF-kB immune response reporter. Conditions: 10 µM; irradiation: 8 Gy/4 fr.
Turning to `CC(Cc1ccc(O)cc1)NCC(O)c1cc(O)cc(O)c1` (configuration not stated) [Fenoterol], the NF-kB reporter worked out at 0.9.
The same measure for `CNCC(=O)c1ccc(O)c(O)c1.Cl` [Adrenalone HCl]: 0.697.
`CN1c2ccccc2C(NCCCCCCC(=O)[O-])c2ccc(Cl)cc2S1(=O)=O.[Na+]` (configuration not stated) [Tianeptine sodium]: the NF-kB reporter is 0.635.
The same measure for `CCCC[N+]1(C)C2CC(OC(=O)C(CO)c3ccccc3)CC1C1OC12.[Br-]` (configuration not stated) [Butylscopolamine Bromide]: 0.607.
Take `COc1ccc(OC)c(C(O)C(C)N)c1.Cl` (configuration not stated) [Methoxamine HCl]: the NF-kB reporter turned out to be 0.539.
The same measure for `COC12CC(COC(=O)c3cncc(Br)c3)CN(C)C1Cc1cn(C)c3cccc2c13` (configuration not stated) [Nicergoline]: 1.08; for `O=c1[nH]c2ccccc2n1C1CCN(CCCC(c2ccc(F)cc2)c2ccc(F)cc2)CC1` [Pimozide]: 0.627.
The same measure for `CC(C)CC1C(=O)N2CCCC2C2(O)OC(NC(=O)C3C=C4c5cccc6[nH]c(Br)c(c56)CC4N(C)C3)(C(C)C)C(=O)N12.CS(=O)(=O)O` (configuration not stated) [Bromocriptine Mesylate]: 0.635; for `COc1ccc2[nH]cc(CCN)c2c1` [5-Methoxytryptamine]: 0.739.
On to `CCC1(C)CC(=O)NC(=O)C1` [Bemegride], for which the NF-kB reporter is 1.06.
As to `COc1cccc2c1cc([N+](=O)[O-])c1c(C(=O)O)cc3c(c12)OCO3` [Aristolochic acid A], the NF-kB reporter turned out to be 0.865.
For the molecule `CCCN1CC(CSC)CC2c3cccc4[nH]cc(c34)CC21.CS(=O)(=O)O` (configuration not stated) [Pergolide Mesylate], the NF-kB reporter stood at 0.606.
